The other results are listed elsewhere or left out. The full chains were built here from the parent and the listed change. Values near 0.05 are background.
B1: TEV protease; numbered along this chain (parent)
chain: MGESLFKGPRDYNPISSSICHLTNESDGHTTSLYGIGFGPFIITNKHLFRRNNGTLVVQSLHGVFKVKDTTTLQQHLVDGRDMIIIRMPKDFPPFPQKLKFREPQREERICLVTTNFQTKSMSSMVSDTSCTFPSGDGIFWKHWIQTKDGQCGSPLVSTRDGFIVGIHSASNFTNTNNYFTSVPKNFMELLTNQEAQQWVSGWRLNADSVLWGGHKVFMVKPEEPFQPVKEATQL

Variants of: B1
Test: raw area under fraction-flipped curve 0-4 h after induction (AUC4h, not background-subtracted), DNA-recorder readout of cleavage of the substrate (dimensionless); higher = more cleavage of the substrate by the protease variant
Settings: temperature: 34 °C; time window: 0-4 h after rhamnose induction
Experimental: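 In vivo DNA recorder in E. coli TOP10(DE3) ΔrhaA at 34 °C. Each TEVp single-site mutant (parent TEVp 0) is paired with a single-site variant of the 7-mer TEVs (canonical ENLYFQ|S). The substrate sits between flexible linkers in a Bxb1-sfGFP-TEVs-SsrA fusion, so cleavage stabilises Bxb1 and speeds flipping of a recombination array, read by NGS. The value is the raw area under the fraction-flipped curve over 0-4 h after rhamnose induction (AUC4h), with ≥20 reads per time point. It is not background-subtracted; inactive controls average about 0.047.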
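Further: Bxb1 expression induced with 0.2% (w/v) L-rhamnose at OD600 near 0.5, cultures sampled hourly, flipped fraction per protease–substrate barcode pair counted by paired-end Illumina sequencing.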

| Variant | area with substrate ENLAFQS | area with substrate ENLFFQS | area with substrate ENLHFQS | area with substrate ENLIFQS | area with substrate ENLKFQS | area with substrate ENLLFQS | area with substrate ENLNFQS | area with substrate ENLPFQS | area with substrate ENLQFQS | area with substrate ENLRFQS | area with substrate ENLSFQS | area with substrate ENLCFQS | area with substrate ENLDFQS | area with substrate ENLMFQS | area with substrate ENLGFQS | area with substrate ENLVFQS | area with substrate ENLEFQS | area with substrate ENLTFQS | area with substrate ENLWFQS |
| --- | --- | --- | --- | --- | --- | --- | --- | --- | --- | --- | --- | --- | --- | --- | --- | --- | --- | --- | --- |
| MGESLFKGPRDYNPISSSICHLTNESDGHTTSLYGIGFGPFIITNKHLFRRNNGTLVVQSLHGVFKVKDTTTLQQHLVDGRDMIIIRMPKDFPPFPQKLKFREPQREERICLVTTNFQTKSMSSMVSDTSCTFPSGDGIFWKHWIQTKDGQCGSPLVSTRDGFIVGIHSASNFTNTNNYFTSVPKNFMELLTNQEAQQWVSGWRLNADSVLWGGHKVFMVKPEEDFQPVKEATQL [P225D] | 0.0765 | 0.0925 | 0.0671 | 0.0889 | 0.0866 | 0.092 | 0.0332 | 0.0644 | 0.0646 | 0.0563 | 0.0605 | – | – | – | – | – | – | – | – |
| MGESLFKGPRDYNPISSSICHLTNESDGHTTSLYGIGFGPFIITNKHLFRRNNGTLVVQSLHGVFKVKDTTTLQQHLVDGRDMIIIRMPKDFPPFPQKLKFREPQREERICLVTTNFQTKSMSSMVSDTSCTFPSGDGIFWKHWIQTKDGQCGSPLVSTRDGFIVGIHSASNFTNTNNYFTSVPKNFMELLTNQEAQQWVSGWRLNADSVLWGGHKVFMVKPEELFQPVKEATQL [P225L] | 0.0666 | – | – | 0.0679 | 0.078 | – | – | – | 0.0848 | 0.0635 | 0.0748 | 0.0725 | 0.0572 | 0.0668 | – | – | – | – | – |
| MGESLFKGPRDYNPISSSICHLTNESDGHTTSLYGIGFGPFIITNKHLFRRNNGTLVVQSLHGVFKVKDTTTLQQHLVDGRDMIIIRMPKDFPPFPQKLKFREPQREERICLVTTNFQTKSMSSMVSDTSCTFPSGDGIFWKHWIQTKDGQCGSPLVSTRDGFIVGIHSASNFTNTNNYFTSVPKNFMELLTNQEAQQWVSGWRLNADSVLWGGHKVFMVKPEEPIQPVKEATQL [F226I] | 0.074 | 0.0803 | 0.067 | – | 0.0934 | – | 0.0744 | 0.0687 | 0.0773 | – | 0.0685 | 0.0816 | 0.07 | 0.0822 | 0.0702 | 0.0849 | – | – | – |
| MGESLFKGPRDYNPISSSICHLTNESDGHTTSLYGIGFGPFIITNKHLFRRNNGTLVVQSLHGVFKVKDTTTLQQHLVDGRDMIIIRMPKDFPPFPQKLKFREPQREERICLVTTNFQTKSMSSMVSDTSCTFPSGDGIFWKHWIQTKDGQCGSPLVSTRDGFIVGIHSASNFTNTNNYFTSVPKNFMELLTNQEAQQWVSGWRLNADSVLWGGHKVFMVKPEEPFSPVKEATQL [Q227S] | 0.0305 | 0.0997 | 0.0768 | 0.08 | 0.0941 | – | 0.0539 | 0.0557 | – | 0.0737 | 0.0761 | – | 0.0537 | – | – | 0.0947 | 0.0611 | 0.0722 | 0.0736 |
| MGESLFKGPRDYNPISSSICHLTNESDGHTTSLYGIGFGPFIITNKHLFRRNNGTLVVQSLHGVFKVKDTTTLQQHLVDGRDMIIIRMPKDFPPFPQKLKFREPQREERICLVTTNFQTKSMSSMVSDTSCTFPSGDGIFWKHWIQTKDGQCGSPLVSTRDGFIVGIHSASNFTNTNNYFTSVPKNFMELLTNQEAQQWVSGWRLNADSVLWGGHKVFMVKPEEPFQHVKEATQL [P228H] | 0.0595 | 0.0847 | 0.082 | 0.0674 | 0.0721 | 0.0812 | 0.077 | 0.061 | 0.057 | 0.06 | 0.0661 | – | 0.0529 | – | – | 0.0672 | 0.052 | – | – |
| MGESLFKGPRDYNPISSSICHLTNESDGHTTSLYGIGFGPFIITNKHLFRRNNGTLVVQSLHGVFKVKDTTTLQQHLVDGRDMIIIRMPKDFPPFPQKLKFREPQREERICLVTTNFQTKSMSSMVSDTSCTFPSGDGIFWKHWIQTKDGQCGSPLVSTRDGFIVGIHSASNFTNTNNYFTSVPKNFMELLTNQEAQQWVSGWRLNADSVLWGGHKVFMVKPEEPFQQVKEATQL [P228Q] | 0.0688 | 0.0822 | 0.078 | 0.0865 | 0.0841 | – | 0.0718 | 0.057 | – | 0.0783 | 0.0517 | 0.0753 | 0.06 | 0.0664 | – | – | 0.0822 | – | 0.053 |
| MGESLFKGPRDYNPISSSICHLTNESDGHTTSLYGIGFGPFIITNKHLFRRNNGTLVVQSLHGVFKVKDTTTLQQHLVDGRDMIIIRMPKDFPPFPQKLKFREPQREERICLVTTNFQTKSMSSMVSDTSCTFPSGDGIFWKHWIQTKDGQCGSPLVSTRDGFIVGIHSASNFTNTNNYFTSVPKNFMELLTNQEAQQWVSGWRLNADSVLWGGHKVFMVKPEEPFQVVKEATQL [P228V] | 0.055 | 0.129 | 0.081 | – | – | – | 0.0679 | 0.0632 | 0.0887 | – | 0.0443 | – | 0.0388 | 0.0865 | – | 0.0859 | 0.0733 | – | 0.0665 |
| MGESLFKGPRDYNPISSSICHLTNESDGHTTSLYGIGFGPFIITNKHLFRRNNGTLVVQSLHGVFKVKDTTTLQQHLVDGRDMIIIRMPKDFPPFPQKLKFREPQREERICLVTTNFQTKSMSSMVSDTSCTFPSGDGIFWKHWIQTKDGQCGSPLVSTRDGFIVGIHSASNFTNTNNYFTSVPKNFMELLTNQEAQQWVSGWRLNADSVLWGGHKVFMVKPEEPFQPGKEATQL [V229G] | 0.0687 | 0.0834 | 0.0668 | 0.0836 | 0.0997 | 0.0882 | 0.0621 | 0.0682 | 0.0726 | 0.0684 | 0.0552 | 0.0693 | 0.0608 | – | 0.072 | – | 0.0715 | – | 0.0624 |
| MGESLFKGPRDYNPISSSICHLTNESDGHTTSLYGIGFGPFIITNKHLFRRNNGTLVVQSLHGVFKVKDTTTLQQHLVDGRDMIIIRMPKDFPPFPQKLKFREPQREERICLVTTNFQTKSMSSMVSDTSCTFPSGDGIFWKHWIQTKDGQCGSPLVSTRDGFIVGIHSASNFTNTNNYFTSVPKNFMELLTNQEAQQWVSGWRLNADSVLWGGHKVFMVKPEEPFQPMKEATQL [V229M] | 0.0684 | 0.0682 | 0.0752 | – | 0.0779 | – | 0.0703 | 0.0472 | – | 0.0939 | 0.0578 | 0.068 | 0.0697 | – | – | – | – | – | 0.073 |

From the supplement of paper PMC12217912
